# The other results are listed elsewhere or left out. At the low end of the ranking the order means little.
# Biological target: GST-SBP-SLBP (stem-loop binding protein) (UniProt Q14493)
# Experiment: targeted RNA Bind-n-Seq;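 also: DESeq read counts versus GST-SBP nonspecific binding control pulldown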
# Settings: RBNS binding buffer: 25 mM Tris pH 7.5, 150 mM KCl, 3 mM MgCl2, 0.1% Tween, 0.5 mg/mL BSA, 1 mM DTT; 27 nM protein, 750 pM RNA pool; temperature not stated; high values mean tight binding
row,Sequence,binding signal (log2 fold change)
1,GGUCACGUCUCAAUCAACUCAAUCCCAGGAGUUUUCUCCUGUAAAUUCAACAGCUCGCAGUCAAG,0.0714
2,GGUCACGUCUCAAUCAACUCUUUCGAGGGGGGGAAAACCCCUUUGCCCUCAAUCUCAACAGCUCGCAGUCAAG,0.0134
3,GGUCACGUCUCAAUCAACUCUUCUUCCAGGGAAAUCCCUGGUAAUUUCAACAGCUCGCAGUCAAG,0.413
4,GGUCACGUCUCAAUCAACUCUUCCUCCAGGGAAAUCCCUGGUUAUCUCAACAGCUCGCAGUCAAG,-0.106
5,GGUCACGUCUCAAUCAACUCUUUCCCCAGGGAAAACCCUGGCUUUUUCAACAGCUCGCAGUCAAG,0.0195
6,GGUCACGUCUCAAUCAACUCAACUCCAGGAGUUUGCUCCUGUAAUUUCAACAGCUCGCAGUCAAG,0.155
7,GGUCACGUCUCAAUCAACUCAUUUUCCAGGGAAAGCCCUGGCUAACUCAACAGCUCGCAGUCAAG,-0.0607
8,GGUCACGUCUCAAUCAACUCAUUCCCCAGGGAAACCCCUGGCUAUCUCAACAGCUCGCAGUCAAG,0.119
9,GGUCACGUCUCAAUCAACUCAUUCCCCAGGGAAAUCCCUGGCAUACUCAACAGCUCGCAGUCAAG,0.0577
10,GGUCACGUCUCAAUCAACUCAUUUCCCAGGGAAAGCCCUGGUUUUUUCAACAGCUCGCAGUCAAG,0.101
11,GGUCACGUCUCAAUCAACUCUUCUUCAGGAGUUUCCUCCUGUAAAUUCAACAGCUCGCAGUCAAG,0.0644
12,GGUCACGUCUCAAUCAACUCAAUAGAGGGGGGGAAAACCCCUUUGCCCUCACAAUCAACAGCUCGCAGUCAAG,0.199
13,GGUCACGUCUCAAUCAACUCAUCGCCAGGAGUUUCCUCCUGUAAUUUCAACAGCUCGCAGUCAAG,-0.0715
14,GGUCACGUCUCAAUCAACUCUUUUCCCAGGGAAAUCCCUGGCAAAUUCAACAGCUCGCAGUCAAG,0.255
15,GGUCACGUCUCAAUCAACUCAAUUUCCAGGGAAAGCCCUGGCUAUUUCAACAGCUCGCAGUCAAG,-0.0388
16,GGUCACGUCUCAAUCAACUCUAUUUCAGGAGUUUUCUCCUGCAUACUCAACAGCUCGCAGUCAAG,0.102
17,GGUCACGUCUCAAUCAACUCUAUUCCAGGAGUUUUCUCCUGCUAUCUCAACAGCUCGCAGUCAAG,0.0293
18,GGUCACGUCUCAAUCAACUCCAUAGAGGGGGGGAAAACCCCUUUACCCUCAUUUUCAACAGCUCGCAGUCAAG,0.342
19,GGUCACGUCUCAAUCAACUCCUAAGAGGGGGGGAAAACCCCUUUACCCUCCGUUUCAACAGCUCGCAGUCAAG,-0.21
20,GGUCACGUCUCAAUCAACUCUAUCCCCAGGGAAAACCCUGGUAAUUUCAACAGCUCGCAGUCAAG,-0.217
21,GGUCACGUCUCAAUCAACUCUAUGUCCAGGGAAAUCCCUGGUUUUCUCAACAGCUCGCAGUCAAG,-0.316
22,GGUCACGUCUCAAUCAACUCAAUUUCCAGGGAAAACCCUGGCUUUUUCAACAGCUCGCAGUCAAG,-0.103
23,GGUCACGUCUCAAUCAACUCAUCCCCCAGGGAAAGCCCUGGUAUUCUCAACAGCUCGCAGUCAAG,0.149
24,GGUCACGUCUCAAUCAACUCAACUUCCAGGGAAAUCCCUGGUAAUUUCAACAGCUCGCAGUCAAG,0.151
25,GGUCACGUCUCAAUCAACUCUUCUUCCAGGGAAACCCCUGGCUAACUCAACAGCUCGCAGUCAAG,-0.0649

row,Sequence,binding signal (log2 fold change)
1,GGUCACGUCUCAAUCAACUCAUUCCCCAGGGAAAACCCUGGUUUAUUCAACAGCUCGCAGUCAAG,0.256
2,GGUCACGUCUCAAUCAACUCAUCGUCCAGGGAAAUCCCUGGUUAAUUCAACAGCUCGCAGUCAAG,-0.359
3,GGUCACGUCUCAAUCAACUCUUUCUCAGGAGUUUACUCCUGUAUUCUCAACAGCUCGCAGUCAAG,0.0638
4,GGUCACGUCUCAAUCAACUCUACUUCAGGAGUUUUCUCCUGUUAUGUCAACAGCUCGCAGUCAAG,-0.0174
5,GGUCACGUCUCAAUCAACUCAAUCUCAGGAGUUUCCUCCUGCUUUCUCAACAGCUCGCAGUCAAG,0.134
6,GGUCACGUCUCAAUCAACUCAGUUUCCAGGGAAAACCCUGGCAUUUUCAACAGCUCGCAGUCAAG,0.0243
7,GGUCACGUCUCAAUCAACUCUUCUUCCAGGGAAACCCCUGGCAUUUUCAACAGCUCGCAGUCAAG,-0.0325
8,GGUCACGUCUCAAUCAACUCCCUCGAGGGGGGGAAAACCCCUUUACCCUCACCGUCAACAGCUCGCAGUCAAG,0.181
9,GGUCACGUCUCAAUCAACUCUUCGCCCAGGGAAAACCCUGGUUUUUUCAACAGCUCGCAGUCAAG,-0.0795
10,GGUCACGUCUCAAUCAACUCUUCUCCCAGGGAAAGCCCUGGUAUACUCAACAGCUCGCAGUCAAG,-0.189
11,GGUCACGUCUCAAUCAACUCUAUCCCCAGGGAAAACCCUGGCAAUCUCAACAGCUCGCAGUCAAG,-0.0525
12,GGUCACGUCUCAAUCAACUCUCUAGAGGGGGGGAAAACCCCUUUGCCCUCAUCGUCAACAGCUCGCAGUCAAG,0.207
13,GGUCACGUCUCAAUCAACUCUUUCUCAGGAGUUUUCUCCUGCAAAUUCAACAGCUCGCAGUCAAG,0.0109
14,GGUCACGUCUCAAUCAACUCUUUCCCCAGGGAAAUCCCUGGUUAACUCAACAGCUCGCAGUCAAG,0.0282
15,GGUCACGUCUCAAUCAACUCAACUCCAGGAGUUUACUCCUGUUAUGUCAACAGCUCGCAGUCAAG,0.0826
16,GGUCACGUCUCAAUCAACUCAUUUUCCAGGGAAACCCCUGGCUUUUUCAACAGCUCGCAGUCAAG,-0.195
17,GGUCACGUCUCAAUCAACUCAACUCCCAGGGAAAACCCUGGCUAUCUCAACAGCUCGCAGUCAAG,-0.0567
18,GGUCACGUCUCAAUCAACUCUACGCCAGGAGUUUACUCCUGUAUAUUCAACAGCUCGCAGUCAAG,-0.13
19,GGUCACGUCUCAAUCAACUCAUUUUCAGGAGUUUACUCCUGCUUUUUCAACAGCUCGCAGUCAAG,-0.305
20,GGUCACGUCUCAAUCAACUCAAUUCCCAGGGAAAACCCUGGCAAAUUCAACAGCUCGCAGUCAAG,0.119
21,GGUCACGUCUCAAUCAACUCAAUCCCCAGGGAAAUCCCUGGCAUUCUCAACAGCUCGCAGUCAAG,0.318
22,GGUCACGUCUCAAUCAACUCAGUUUCAGGAGUUUGCUCCUGUAUAUUCAACAGCUCGCAGUCAAG,-0.129
23,GGUCACGUCUCAAUCAACUCAUCUCCCAGGGAAAACCCUGGUAUAUUCAACAGCUCGCAGUCAAG,0.374
24,GGUCACGUCUCAAUCAACUCUACUCCAGGAGUUUCCUCCUGCAAUUUCAACAGCUCGCAGUCAAG,0.0157
25,GGUCACGUCUCAAUCAACUCAGUUUCAGGAGUUUACUCCUGCUUUCUCAACAGCUCGCAGUCAAG,0.209

row,Sequence,binding signal (log2 fold change)
1,GGUCACGUCUCAAUCAACUCUAUCUCAGGAGUUUACUCCUGUUUAUUCAACAGCUCGCAGUCAAG,-0.000257
2,GGUCACGUCUCAAUCAACUCAGUUCCAGGAGUUUGCUCCUGCUUUUUCAACAGCUCGCAGUCAAG,-0.112
3,GGUCACGUCUCAAUCAACUCAUCUUCCAGGGAAAGCCCUGGCGUUUUCAACAGCUCGCAGUCAAG,-0.276
4,GGUCACGUCUCAAUCAACUCUAUCCCAGGAGUUUUCUCCUGUUAACUCAACAGCUCGCAGUCAAG,0.0384
5,GGUCACGUCUCAAUCAACUCAACUUCCAGGGAAAUCCCUGGUUUUCUCAACAGCUCGCAGUCAAG,0.25
6,GGUCACGUCUCAAUCAACUCAUCCCCCAGGGAAAACCCUGGCAAAUUCAACAGCUCGCAGUCAAG,-0.094
7,GGUCACGUCUCAAUCAACUCUACUCCCAGGGAAAGCCCUGGUUAUCUCAACAGCUCGCAGUCAAG,-0.226
8,GGUCACGUCUCAAUCAACUCUAUGUCAGGAGUUUUCUCCUGUUUUCUCAACAGCUCGCAGUCAAG,0.0161
9,GGUCACGUCUCAAUCAACUCAUCUUCAGGAGUUUUCUCCUGCAUUCUCAACAGCUCGCAGUCAAG,0.0362
10,GGUCACGUCUCAAUCAACUCAUCUCCAGGAGUUUUCUCCUGCUUUCUCAACAGCUCGCAGUCAAG,0.24
11,GGUCACGUCUCAAUCAACUCAUUCUCAGGAGUUUACUCCUGCAAUCUCAACAGCUCGCAGUCAAG,0.261
12,GGUCACGUCUCAAUCAACUCACUCGAGGGGGGGAAAACCCCUUUACCCUCAUCAUCAACAGCUCGCAGUCAAG,0.11
13,GGUCACGUCUCAAUCAACUCUCUAGAGGGGGGGAAAACCCCUUUGCCCUCACAAUCAACAGCUCGCAGUCAAG,-0.293
14,GGUCACGUCUCAAUCAACUCUUUUCCCAGGGAAAGCCCUGGUUAUCUCAACAGCUCGCAGUCAAG,-0.104
15,GGUCACGUCUCAAUCAACUCUAUAGAGGGGGGGAAAACCCCUUUGCCCUCAUCAUCAACAGCUCGCAGUCAAG,-0.103
16,GGUCACGUCUCAAUCAACUCAUUAGAGGGGGGGAAAACCCCUUUACCCUCGUCUUCAACAGCUCGCAGUCAAG,0.284
17,GGUCACGUCUCAAUCAACUCAUUAGAGGGGGGGAAAACCCCUUUACCCUCGUUCUCAACAGCUCGCAGUCAAG,-0.263
18,GGUCACGUCUCAAUCAACUCUUUUCCCAGGGAAAGCCCUGGUAUACUCAACAGCUCGCAGUCAAG,0.205
19,GGUCACGUCUCAAUCAACUCUCACGAGGGGGGGAAAACCCCUUUACCCUCUUCAUCAACAGCUCGCAGUCAAG,-0.505
20,GGUCACGUCUCAAUCAACUCAAUCUCAGGAGUUUACUCCUGCAAUGUCAACAGCUCGCAGUCAAG,0.00748
21,GGUCACGUCUCAAUCAACUCUAUUUCAGGAGUUUACUCCUGCAAACUCAACAGCUCGCAGUCAAG,-0.0494
22,GGUCACGUCUCAAUCAACUCUUCCUCAGGAGUUUACUCCUGUUAAUUCAACAGCUCGCAGUCAAG,-0.243
23,GGUCACGUCUCAAUCAACUCAUCCCCAGGAGUUUACUCCUGCAUAUUCAACAGCUCGCAGUCAAG,0.113
24,GGUCACGUCUCAAUCAACUCAAUCGAGGGGGGGAAAACCCCUUUACCCUCCUAAUCAACAGCUCGCAGUCAAG,-0.24
